Test results: PubChem BioAssay AID1768 (National Center for Advancing Translational Sciences (NCATS), 2009)
Among all 270,000 compounds or so, about 620 (0.23%) were called active. Inconclusive results, whose numbers are uncertain, are shown with a selection of clear calls. Calls come from the whole dose curve; as a rule, active = well fitted inhibition curve with a large enough effect in the polarisation, with a control signal flat (not every such curve was filed as active); inconclusive = small, poorly fitted or top-dose-only effect, or effect the other way, or a change in a side signal; inactive = no such curve, though single readings can be large or run the other way; the % refers to the polarisation. Potencies of inconclusive entries are doubtful fits and often do not repeat. A note “side channel” means that the fit belongs to a control or component signal, not to the main read-out.

target: Menin (Homo sapiens) (UniProt O00255); assay: qHTS Assay for Inhibitors Targeting the Menin-MLL Interaction in MLL Related Leukemias: Competition With Texas Red Labeled MLL-derived Mutant Peptide; details: fluorescence polarization; series mostly up to 61.6 µM
UniProt O00255, sequence (O00255 whole entry, looked up): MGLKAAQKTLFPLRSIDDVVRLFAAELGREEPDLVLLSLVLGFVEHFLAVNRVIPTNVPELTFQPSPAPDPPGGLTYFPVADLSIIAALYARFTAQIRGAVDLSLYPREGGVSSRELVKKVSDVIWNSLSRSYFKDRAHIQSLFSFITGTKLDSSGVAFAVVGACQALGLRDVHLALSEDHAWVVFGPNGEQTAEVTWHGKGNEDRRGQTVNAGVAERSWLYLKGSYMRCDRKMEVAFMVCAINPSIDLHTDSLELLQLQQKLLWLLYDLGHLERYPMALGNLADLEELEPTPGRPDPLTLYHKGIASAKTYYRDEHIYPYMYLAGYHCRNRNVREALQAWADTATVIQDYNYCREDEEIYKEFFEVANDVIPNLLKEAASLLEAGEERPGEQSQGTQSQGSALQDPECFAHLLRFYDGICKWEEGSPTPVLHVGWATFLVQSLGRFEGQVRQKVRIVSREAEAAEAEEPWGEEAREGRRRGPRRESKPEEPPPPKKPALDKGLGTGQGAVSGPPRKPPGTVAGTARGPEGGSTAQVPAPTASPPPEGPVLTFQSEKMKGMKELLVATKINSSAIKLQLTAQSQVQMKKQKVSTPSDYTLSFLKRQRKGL
Potency is the fitted concentration of half-maximal effect; tags give direction and shape of the fitted curve or compound fluorescence and quenching.

Potency, inconclusive:
O=C(COC(=O)c1cc(-c2ccco2)nc2ccccc12)NCc1ccccc1 12.6 µM [quencher, side channel, partial curve]
Cc1ccc(NC(=O)CCc2c(C)nn(-c3ccc(N4CCCCC4)nn3)c2C)cc1 0.631 µM [inhibitor, full curve, poor fit]
CC(C)CC(C(=O)OCC(=O)Nc1ncc(Cl)cc1Cl)N1C(=O)c2ccccc2C1=O (stereo unspecified) 6.31 µM [inhibitor, single point]
CSc1cccc(NC(=S)NC(=O)CCc2ccccc2)c1 28.2 µM [quencher, side channel, single point]
Nc1ccc2nc(-c3cccc(-c4nc5ccc(N)cc5[nH]4)c3)[nH]c2c1 15.8 µM [quencher, side channel, partial curve]
Cc1cccc(N(CC(=O)NC2CCCC2)C(=O)c2nsc(Cl)c2Cl)c1C 2.51 µM [fluorescent, side channel, partial curve]
O=C(CCNc1cc(Cl)cc(Cl)c1)c1cccs1 20 µM [quencher, side channel, single point]
Cc1ccc(-n2ccc(=O)c(C(=O)Nc3ccc(S(=O)(=O)N4CCOCC4)cc3)n2)cc1 25.1 µM [quencher, side channel, single point]
O=c1[nH]c(CN2CCN(S(=O)(=O)c3ccc4ccccc4c3)CC2)nc2ccccc12 31.6 µM [fluorescent, side channel, single point]
Cc1nc(NC(C)c2ccccc2)c2c3c(sc2n1)CCC3 (stereo unspecified) 28.2 µM [fluorescent, side channel, single point]
Cc1ccc(S(=O)(=O)Nc2nc3ccccc3nc2Nc2cccc(S(=O)(=O)N3CCCC3)c2)cc1 3.16 µM [quencher, side channel, partial curve]
CC1CCN(S(=O)(=O)c2ccc(NC(=O)CN3CCCC(C)C3)cc2)CC1 (stereo unspecified) 0.631 µM [fluorescent, side channel, full curve, poor fit]
O=C(Nc1cc(C(=O)Nc2ccc(S(=O)(=O)O)cc2)cc(C(=O)Nc2ccc(S(=O)(=O)O)cc2)c1)Nc1cc(C(=O)Nc2ccc(S(=O)(=O)O)cc2)cc(C(=O)Nc2ccc(S(=O)(=O)O)cc2)c1 17.8 µM [inhibitor, partial curve]
CCN(CC)S(=O)(=O)c1ccc(N=Nc2c(C)[nH]n(C(N)=S)c2=O)cc1 25.1 µM [quencher, side channel, partial curve]
COc1cc(OC)cc(-c2nnc(Nc3nc4c(F)cccc4s3)o2)c1 14.1 µM [quencher, side channel, partial curve]
N/N=C(/Cc1nc2ccccc2[nH]1)c1ccc([N+](=O)[O-])cc1 22.4 µM [quencher, side channel, partial curve, poor fit]
COc1cc(SC#N)ccc1N=Cc1c(C)[nH]n(-c2ccc(C)c(C)c2)c1=O 11.2 µM [quencher, side channel, partial curve]
CCOC(=O)N1CCN(Cc2nc3c(c(=O)[nH]c(=O)n3C)n2Cc2ccccc2C)CC1 22.4 µM [inhibitor, partial curve, poor fit]
CN1C(C(=O)Nc2cccc(O)c2)=CC(c2cccs2)=NS1(=O)=O 25.1 µM [quencher, side channel, single point]
CCCOc1ccc2c(=O)c(-c3cc(C(=O)OC)oc3C)c(C)oc2c1 2.82 µM [inhibitor, partial curve]
CC(C)OCc1c(C(=O)OC/C(O)=C(\C#N)c2nc3ccccc3[nH]2)oc2ccccc12 17.8 µM [quencher, side channel, single point]
COc1ccc2c(c1)OCc1c-2oc2cc(OC)ccc12 31.6 µM [quencher, side channel, single point]
O=C(Nc1ccc(Br)cc1)c1cc(-c2ccc3c(c2)OCO3)on1 28.2 µM [fluorescent, side channel, partial curve]
COc1ccc(-c2nn(-c3ccccc3)cc2/C=N/n2cnnc2)cc1OC 44.7 µM [inhibitor, single point]
C/C(=N\Nc1ccc([N+](=O)[O-])cc1)c1ccc(-n2nncc2C)cc1 25.1 µM [quencher, side channel, partial curve]
CCOc1c2ccc(C(=O)NC3CCCc4ccccc43)cc2nn1C (stereo unspecified) 39.8 µM [inhibitor, single point]
COc1ccc(COc2ccc3c(C)cc(=O)oc3c2)cc1 25.1 µM [fluorescent, side channel, partial curve]
Nc1nc(CSC(=S)N2CCN(c3ccccc3)CC2)nc(Nc2ccc(F)cc2)n1 1.58 µM [quencher, side channel, full curve, poor fit]
COc1ccccc1NC(=O)c1cc2ccc(O)cc2o/c1=N\O 14.1 µM [quencher, side channel, partial curve]

Potency, inactive:
O=c1cc(CN2CCCc3ccccc32)nc2sccn12
CCc1ccccc1Nc1nn2c(=O)c3ccc(C(=O)NCc4ccccn4)cc3nc2s1
NC(CO)(CO)CO
Cc1cc(=O)oc2c(CN3CCCC3)c(O)c(Cl)cc12
Cn1cc(S(=O)(=O)N2CCc3ccccc32)cc1C(=O)Nc1ccc(Cl)cc1
COc1ccc(C(C(=O)NC2CCCC2)N(C(=O)c2ccco2)c2cc3c(cc2C(C)=O)OCO3)cc1OC (stereo unspecified)
CCOC(=O)c1c(S(=O)(=O)N(C)C2CCCCC2)c(C)n(C)c1C
